# Measurements as given in PubChem BioAssay (Tox21).
# Where “and” joins values, the source holds several entries; their conditions need not be identical. Equal values may be shown once. Inconclusive means that the source gave no clear call. Such entries were picked first, then a sample of the others. For some assays here: A potency beside an inconclusive call is a rough fit, not a confirmed value. Where a structure was tested more than once in an assay, its records may differ in their call. Calls of active or inactive are those of the source. Unless noted, calls come from the whole dose curve; as a rule, active = well fitted curve in the direction sought with a large enough effect in the repeat runs; inconclusive = weak or mixed curves; inactive = no such curve, though single readings can be large; an effect the other way counts as inactive or inconclusive.
# Columns and labels:
# [1] = qHTS assay for small molecule agonists of the antioxidant response element (ARE) signaling pathway (AID 743202; active = well fitted activation curve with a large enough effect in the signal ratio in the repeat runs, not every such curve was filed as active; inconclusive = weak or mixed curves, or effect the other way; inactive = no such curve, though single readings can be large or run the other way; the % refers to the signal ratio; note: potency is the fitted concentration of half-maximal effect; for activation: % is set by controls: 0 for no effect and ±100 for the full control effect); conditions: HepG2 ARE-bla reporter, beta-lactamase FRET, 16 h
# Outline: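 After 16 hours of compound treatment at 37 C, HepG2 cells with a stably integrated ARE-driven beta-lactamase reporter were loaded 2 hours at room temperature with LiveBLAzer B/G FRET substrate and fluorescence intensity measured.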
# [2] = qHTS assay to identify small molecule agonists of the peroxisome proliferator-activated receptor delta (PPARd) signaling pathway - cell viability counter screen (AID 743211); conditions: PPARd-bla HEK293H viability, CellTiter-Glo luminescence, 17 h; activity change, negative = cytotoxicity: at 62.6 µM (top of the series); note: nearly all actives have a fitted effect of over 55% in size; note: potency is the fitted concentration of half-maximal effect
# Outline: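 Read-out: CellTiter-Glo luminescence, 30 min RT, measured in the same wells as the beta-lactamase reporter. Cells: GeneBLAzer PPAR delta UAS-bla HEK293H, 3000 cells/well, compound exposure 17 h at 37C.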
# [3] = molecular target: Peroxisome proliferator-activated receptor delta (Homo sapiens) (UniProt Q03181); assay: qHTS assay to identify small molecule agonists of the peroxisome proliferator-activated receptor delta (PPARd) signaling pathway (AID 743212; calls by dose curve; note: potency is the fitted concentration of half-maximal effect; for activation: % is set by controls: 0 for no effect and ±100 for the full control effect); conditions: HEK293H PPARd-UAS-bla, beta-lactamase FRET ratio, 17 h; activation: at 62.6 µM (top of the series) unless noted
# Sequence of UniProt Q03181 (Q03181 whole entry, looked up): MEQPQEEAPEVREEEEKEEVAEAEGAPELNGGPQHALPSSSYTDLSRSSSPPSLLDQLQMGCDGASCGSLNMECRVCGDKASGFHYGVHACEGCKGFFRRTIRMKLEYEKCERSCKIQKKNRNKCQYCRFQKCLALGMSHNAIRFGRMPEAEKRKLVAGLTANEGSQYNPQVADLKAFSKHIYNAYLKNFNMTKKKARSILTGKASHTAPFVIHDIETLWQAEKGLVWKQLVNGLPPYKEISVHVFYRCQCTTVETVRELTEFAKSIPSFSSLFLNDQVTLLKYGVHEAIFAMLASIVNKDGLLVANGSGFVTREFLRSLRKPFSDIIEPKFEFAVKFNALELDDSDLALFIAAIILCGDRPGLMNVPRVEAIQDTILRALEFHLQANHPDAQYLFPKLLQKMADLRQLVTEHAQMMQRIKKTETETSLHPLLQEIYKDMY
# Outline: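 Beta-lactamase reporter readout: a ratiometric FRET signal from the LiveBLAzer substrate after 2 h at room temperature. Compound exposure at 37 °C in PPARδ-bla HEK293H cells driven by an upstream activator sequence.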
# [4] = qHTS assay to identify small molecule antagonists of the peroxisome proliferator-activated receptor delta (PPARd) signaling pathway - cell viability counter screen (AID 743213); conditions: PPARd-bla HEK293H viability, CellTiter-Glo luminescence, 17 h; viability change, negative = cytotoxic: at 62 µM (top of the series) unless noted; note: nearly all actives have a fitted effect of over 50% in size; note: potency is the fitted concentration of half-maximal effect
# Outline: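 Agonist-stimulated (L165041, 300 nM final) HEK293H PPARd UAS-bla cells are exposed to compounds for 17 h at 37 C, and ATP-based luminescence (CellTiter-Glo) from the same wells reports cytotoxicity.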
# [5] = molecular target: Peroxisome proliferator-activated receptor delta (Homo sapiens) (UniProt Q03181); assay: qHTS assay to identify small molecule antagonists of the peroxisome proliferator-activated receptor delta (PPARd) signaling pathway (AID 743215; active = well fitted inhibition curve with a large enough effect in the signal ratio in the repeat runs, not every such curve was filed as active; inconclusive = weak or mixed curves, or effect the other way; inactive = no such curve, though single readings can be large or run the other way; the % refers to the signal ratio; note: potency is the fitted concentration of half-maximal effect); conditions: HEK293H PPARd-UAS-bla, beta-lactamase FRET ratio, antagonist, 17 h
# Outline: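 Here, a reporter line (HEK293H, beta-lactamase under a UAS) measures PPARd signaling. Compounds are tested against agonist L165041 at 300 nM final concentration over 17 h at 37 C, with fluorescence read after substrate.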
# [6] = qHTS assay to identify small molecule antagonists of the farnesoid-X-receptor (FXR) signaling pathway - cell viability counter screen (AID 743221; active = well fitted cell-killing curve with a large enough effect in the repeat runs, not every such curve was filed as active; inconclusive = weak or mixed curves, or effect the other way; inactive = no such curve, though single readings can be large or run the other way; note: nearly all actives have a fitted effect of over 50% in size; note: potency is the fitted concentration of half-maximal effect); conditions: FXR-bla HEK293T viability, CellTiter-Glo luminescence, 16 h; activity change, negative = cytotoxicity: at 62.6 µM (top of the series) unless noted
# Outline: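 HEK 293T FXR-bla cells, 5 h pre-incubation; compound + CDCA 50 uM final, 16 h, 37 C; beta-lactamase FRET read first, then CellTiter-Glo luminescence, 30 min RT.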
# [7] = molecular target: Vitamin D3 receptor (Homo sapiens) (UniProt P11473); assay: qHTS assay to identify small molecule agonists of the vitamin D receptor (VDR) signaling pathway (AID 743222; calls by dose curve; note: % is set by controls: 0 for no effect and ±100 for the full control effect); conditions: HEK293T VDR-UAS-bla, beta-lactamase FRET ratio, 16 h; activation: at 63.5 µM (top of the series) unless noted
# Sequence of UniProt P11473 (P11473 whole entry, looked up): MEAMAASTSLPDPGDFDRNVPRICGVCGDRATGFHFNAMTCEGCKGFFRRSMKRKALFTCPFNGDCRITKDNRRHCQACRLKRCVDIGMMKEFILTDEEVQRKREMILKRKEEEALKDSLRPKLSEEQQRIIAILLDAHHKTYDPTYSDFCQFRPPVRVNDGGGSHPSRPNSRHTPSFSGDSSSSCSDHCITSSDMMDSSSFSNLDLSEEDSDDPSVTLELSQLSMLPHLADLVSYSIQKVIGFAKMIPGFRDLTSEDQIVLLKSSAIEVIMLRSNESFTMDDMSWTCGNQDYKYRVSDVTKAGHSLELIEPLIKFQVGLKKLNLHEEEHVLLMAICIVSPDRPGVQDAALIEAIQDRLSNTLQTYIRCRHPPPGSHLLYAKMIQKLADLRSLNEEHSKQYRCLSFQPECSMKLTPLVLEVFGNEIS
# Outline: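 Tox21 cell reporter format: VDR-bla line, 16 h compound exposure in 5% CO2 at 37C, then fluorescence intensity after 2 h with LiveBLAzer B/G FRET substrate.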
# [8] = molecular target: Vitamin D3 receptor (Homo sapiens) (UniProt P11473); assay: qHTS assay to identify small molecule antagonists of the vitamin D receptor (VDR) signaling pathway (AID 743223; active = well fitted inhibition curve with a large enough effect in the signal ratio in the repeat runs, not every such curve was filed as active; inconclusive = weak or mixed curves, or effect the other way; inactive = no such curve, though single readings can be large or run the other way; the % refers to the signal ratio; note: potency is the fitted concentration of half-maximal effect); conditions: VDR-UAS-bla HEK293T, beta-lactamase FRET ratio, 16 h; activity change, negative = inhibition: at 61 µM (top of the series) unless noted
# Outline: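 Beta-lactamase reporter read-out: FRET substrate fluorescence after 2 h at room temperature, following 16 h exposure of VDR-bla cells to test compound plus 3 nM (final) 1alpha,25-dihydroxyvitamin D3 agonist at 37C.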
# [9] = qHTS assay to identify small molecule agonists of the vitamin D receptor (VDR) signaling pathway - cell viability counter screen (AID 743224); conditions: VDR-bla HEK293T viability, CellTiter-Glo luminescence, 16 h; activity change, negative = cytotoxicity: at 62.6 µM (top of the series); note: potency is the fitted concentration of half-maximal effect; nearly all actives have a fitted effect of over 50% in size
# Outline: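 CellTiter-Glo viability readout on VDR-bla cells, measured after 16 h of compound treatment at 37C in the same wells.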
# [10] = molecular target: Nuclear receptor ROR-gamma (Homo sapiens) (UniProt P51449); assay: qHTS assay to identify small molecule antagonists of the retinoid-related orphan receptor gamma (ROR-gamma) signaling pathway (AID 1159521; note: potency is the fitted concentration of half-maximal effect; nearly all actives have a fitted effect of over 50% in size)
# Outline: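 Luminescence readout (ONE-Glo, 30 min RT) after 16 h doxycycline induction; loss of signal scored as antagonism. CHO cells with TET-inducible RORγ and RORE-LUC reporter; compounds added 2 h before 1 uM final doxycycline.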
# [11] = qHTS assay to identify small molecule agonists of the AP-1 signaling pathway (AID 1159526; calls by dose curve; note: potency is the fitted concentration of half-maximal effect); conditions: ME-180 (cervical carcinoma) AP-1-bla reporter, beta-lactamase FRET ratio, 5 h; activation: at 76.8 µM (top of the series) unless noted
# [12] = qHTS assay for small molecule activators of the heat shock response signaling pathway - cell viability counter screen (AID 743209); conditions: HSE-bla HeLa viability, CellTiter-Glo luminescence, 5 h; activity change, negative = cytotoxicity: at 62.6 µM (top of the series); note: nearly all actives have a fitted effect of over 50% in size; note: potency is the fitted concentration of half-maximal effect
# Outline: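 Compounds dissolved in DMSO were added to overnight-plated HSE-bla HeLa cells and left 5 h at 37 C. Cell viability was quantified by luminescence using CellTiter-Glo.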
# [13] = qHTS assay to identify small molecule agonists of the farnesoid-X-receptor (FXR) signaling pathway - cell viability counter screen (AID 743218); conditions: FXR-bla HEK293T viability, CellTiter-Glo luminescence, 16 h; viability change, negative = cytotoxic: at 62.6 µM (top of the series) unless noted; note: potency is the fitted concentration of half-maximal effect; nearly all actives have a fitted effect of over 45% in size
# Outline: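 Quantitative HTS counter screen measuring ATP-based viability via CellTiter-Glo luminescence in HEK 293T cells carrying a UAS-driven beta-lactamase reporter, after 16 h compound exposure at 37 C.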
# [14] = qHTS assay for small molecule activators of the heat shock response signaling pathway (AID 743210; active = well fitted activation curve with a large enough effect in the signal ratio in the repeat runs, with a control signal flat, not every such curve was filed as active; inconclusive = weak or mixed curves; the % refers to the signal ratio; note: potency is the fitted concentration of half-maximal effect); conditions: HeLa HSE-bla reporter, beta-lactamase ratio, 5 h; activation: at 62.6 µM (top of the series) unless noted
# Outline: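 Compound exposure lasted 5 h at 37 C in HeLa cells carrying a heat-shock-element-driven beta-lactamase reporter. Read-out: fluorescence intensity after 2.5 h room-temperature loading with LiveBLAzer B/G FRET substrate.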
# [15] = molecular target: Bile acid receptor (Homo sapiens) (UniProt Q96RI1); assay: qHTS assay to identify small molecule antagonists of the farnesoid-X-receptor (FXR) signaling pathway (AID 743217; active = well fitted inhibition curve with a large enough effect in the signal ratio in the repeat runs, not every such curve was filed as active; inconclusive = weak or mixed curves, or effect the other way; inactive = no such curve, though single readings can be large or run the other way; the % refers to the signal ratio; note: % is set by controls: 0 for no effect and ±100 for the full control effect); conditions: HEK293T FXR-UAS-bla, beta-lactamase ratio, CDCA-stimulated, 16 h; activity change, negative = inhibition: at 62.6 µM (top of the series) unless noted
# Sequence of UniProt Q96RI1 (Q96RI1 whole entry, looked up): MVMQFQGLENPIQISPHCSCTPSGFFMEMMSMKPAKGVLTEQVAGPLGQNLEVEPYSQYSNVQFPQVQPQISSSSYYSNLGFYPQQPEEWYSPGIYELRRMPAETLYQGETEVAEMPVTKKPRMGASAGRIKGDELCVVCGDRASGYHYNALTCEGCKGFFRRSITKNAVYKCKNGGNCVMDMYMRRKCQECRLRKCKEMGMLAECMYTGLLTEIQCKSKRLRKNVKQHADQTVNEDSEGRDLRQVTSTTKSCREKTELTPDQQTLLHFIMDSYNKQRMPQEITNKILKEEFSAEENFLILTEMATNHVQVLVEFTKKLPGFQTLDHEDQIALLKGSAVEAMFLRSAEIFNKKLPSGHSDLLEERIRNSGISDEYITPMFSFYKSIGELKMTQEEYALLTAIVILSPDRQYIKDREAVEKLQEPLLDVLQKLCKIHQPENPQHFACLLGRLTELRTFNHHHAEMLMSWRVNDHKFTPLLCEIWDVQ
# Outline: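 Test compounds are pin-transferred onto FXR-bla HEK 293T cells, then chenodeoxycholic acid is added at 50 uM final. After 16 h at 37 °C, LiveBLAzer B/G substrate is applied for 2 h at room temperature and fluorescence read.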
# [16] = activation: at 73.3 µM (top of the series) unless noted
# [17] = ratio activity, negative = inhibition: at 62 µM (top of the series) unless noted
# Tags give direction and shape of the fitted curve or compound fluorescence and quenching.
smiles,measurement,setting,value
CC[C@H]1CC[C@H](NCc2cc3c(cc2OC)[C@H]2C[C@H]2C(=O)N3C)[C@H](c2ccccc2)N1,activation,[1]; [16],inconclusive: -23.7%
same,Potency,[2],"inconclusive: 19.5 µM [cytotoxic, full curve]"
same,Potency,[3],inactive
same,Potency,[4],"inconclusive: 15.5 µM [cytotoxic, partial curve, poor fit]"
same,"ratio activity, negative = inhibition",[5]; [17],inconclusive: -23.3%
same,Potency,[6],inactive
same,activation,[7],inconclusive: -28.3%
same,Potency,[8],"inconclusive: 6.92 µM [inhibitor, full curve]"
same,Potency,[9],"inconclusive: 43.6 µM [cytotoxic, partial curve, poor fit]"
same,Potency,[10],active: 30.6 µM
same,Potency,[11],"inconclusive: 15.5 µM [activator, partial curve]"
C#C[C@]1(O)CC[C@H]2[C@@H]3CCC4=CC(=O)CC[C@@H]4[C@H]3CC[C@@]21C,Potency,[1]; [16],active: 24.3 µM and inconclusive: 29.8 µM
same,Potency,[12],inactive
same,activation,[3],inconclusive: -4.87%
same,Potency,[4],inactive
same,"ratio activity, negative = inhibition",[5]; at 62 µM (top of the series),inactive: 4.88%
same,"ratio activity, negative = inhibition",[5]; [17],inconclusive: -21.4% [fluorescent]
same,Potency,[9],"inconclusive: 11 µM [cytotoxic, full curve, poor fit]"
same,Potency,[10],inconclusive: 33.5 µM [inhibitor]
same,activation,[11],inconclusive: 12.9%
CN(C)c1ccc(CCO)cc1,Potency,[1]; [16],inactive
same,Potency,[10],inconclusive: 15.3 µM [inhibitor]
same,Potency,[11],"inconclusive: 48.7 µM [activator, partial curve]"
CN(C)CCC(c1ccc(Cl)cc1)c1ccccn1 (stereo unspecified),Potency,[1]; [16],"inconclusive: 27.3 µM [falling, partial curve]"
same,activation,[1]; [16],inconclusive: -19.2%
same,Potency,[2],"inconclusive: 49.1 µM [cytotoxic, partial curve, poor fit] and inconclusive: 27.5 µM [cytotoxic, partial curve, poor fit]"
same,Potency,[4],"inconclusive: 61.8 µM [cytotoxic, single point]"
same,Potency,[13],"inconclusive: 0.138 µM [rising, single point]"
same,Potency,[6],"inconclusive: 3.89 µM [falling, full curve, poor fit]"
same,Potency,[10],"inconclusive: 38.6 µM [inhibitor, partial curve, poor fit] and inconclusive: 77 µM [inhibitor, single point]"
same,Potency,[11],"inconclusive: 19.5 µM [activator, single point] and inconclusive: 27.5 µM [activator, partial curve]"
CC(=O)N(CC(O)CN(C(C)=O)c1c(I)c(C(=O)NCC(O)CO)c(I)c(C(=O)NCC(O)CO)c1I)c1c(I)c(C(=O)NCC(O)CO)c(I)c(C(=O)NCC(O)CO)c1I (stereo unspecified),Potency,[10],"inconclusive: 0.0075 µM [inhibitor, full curve, poor fit]"
same,Potency,[11],inactive
CCC(C)c1cc(C(C)(C)C)c(O)c(C(C)(C)C)c1 (stereo unspecified),Potency,[1]; [16],"inconclusive: 6.73 µM [falling, partial curve, poor fit]"
same,Potency,[12],"inconclusive: 53.9 µM [cytotoxic, single point]"
same,Potency,[14],"inconclusive: 60.5 µM [falling, single point]"
same,Potency,[2],"inconclusive: 60.5 µM [cytotoxic, partial curve, poor fit]"
same,activation,[3],inconclusive: 0.625%
same,"activity change, negative = inhibition",[8],inconclusive: 20.7%
same,Potency,[10],"inconclusive: 2.68 µM [inhibitor, single point]"
same,Potency,[11],"inconclusive: 15.2 µM [falling, full curve]"
NC[C@H](O)c1ccc(O)c(O)c1,Potency,[1]; [16],"inconclusive: 0.611 µM [falling, full curve]"
same,activation,[1]; [16],inconclusive: -26.3%
same,Potency,[2],inactive
same,Potency,[4],"inactive and inconclusive: 23.7 nM [cytotoxic, full curve, poor fit]"
same,Potency,[10],"inconclusive: 30.6 µM [inhibitor, full curve, poor fit]"
same,Potency,[11],"inconclusive: 19.5 µM [activator, partial curve]"
CCCCOC(=O)COc1ccc(Cl)cc1Cl,activation,[1]; [16],inconclusive: 18.1%
same,activation,[1]; at 94.8 µM (top of the series),inactive: -6.8%
same,Potency,[2],"inconclusive: 61.7 µM [cytotoxic, single point]"
same,"activity change, negative = inhibition",[15],inconclusive: 9.47%
same,Potency,[10],active: 19.5 µM
same,Potency,[11],inconclusive: 49.6 µM
CC1(C)[C@H]2CC[C@]1(C)C(=O)C2,Potency,[10],"inconclusive: 68.6 µM [inhibitor, single point]"
same,Potency,[11],active: 19.5 µM
CCOC(=O)C1=NN(c2ccc(Cl)cc2Cl)C(C)(C(=O)OCC)C1 (stereo unspecified),Potency,[10],active: 30.6 µM
same,Potency,[11],"inconclusive: 61.6 µM [activator, single point]"
CC(C)(C)C(=O)C(Oc1ccc(Cl)cc1)n1ccnc1 (stereo unspecified),Potency,[1]; [16],inactive
same,Potency,[14],inconclusive: 29.8 µM [activator]
same,Potency,[3],inactive
same,Potency,[5]; [17],inactive
same,Potency,[10],"inconclusive: 26.6 µM [inhibitor, partial curve, poor fit]"
same,Potency,[11],inactive
CCCCCOC(C)=O,Potency,[1]; [16],inconclusive: 54.5 µM
same,Potency,[14],inconclusive: 50.9 µM [activator]
same,Potency,[2],"inconclusive: 61.6 µM [cytotoxic, single point]"
same,Potency,[3],"inconclusive: 61.6 µM [rising, partial curve, poor fit]"
same,Potency,[4],"inconclusive: 61.6 µM [cytotoxic, single point]"
same,Potency,[5]; [17],inconclusive: 61.6 µM [single point]
same,Potency,[10],"inconclusive: 19.6 µM [inhibitor, full curve, poor fit] and inconclusive: 12.2 µM [inhibitor, full curve, poor fit]"
same,Potency,[11],inactive and inconclusive: 61.6 µM
